# Data: PubChem BioAssay AID1030 (National Center for Advancing Translational Sciences (NCATS), 2008)
# Screen size: about 220,000 compounds; about 16,000 (7.3%) were called active. Inconclusive results, whose numbers are uncertain, are shown with a selection of clear calls. Calls come from the whole dose curve; as a rule, active = well fitted inhibition curve with a large enough effect (not every such curve was filed as active); inconclusive = small, poorly fitted or top-dose-only effect, or another doubt; inactive = no such curve, though single readings can be large or run the other way. No potency is given beside an inconclusive call; the fits are too rough.
# Biological target: Aldehyde dehydrogenase 1A1 (Homo sapiens) (UniProt P00352)
# Experiment: qHTS Assay for Inhibitors of Aldehyde Dehydrogenase 1 (ALDH1A1)
# Details: Purified ALDH1A1, NADH fluorescence, propionaldehyde substrate; series mostly up to 75.3 µM
# Potency is the fitted concentration of half-maximal effect; tags give direction and shape of the fitted curve.
# Sequence of UniProt P00352 (P00352 whole entry, looked up): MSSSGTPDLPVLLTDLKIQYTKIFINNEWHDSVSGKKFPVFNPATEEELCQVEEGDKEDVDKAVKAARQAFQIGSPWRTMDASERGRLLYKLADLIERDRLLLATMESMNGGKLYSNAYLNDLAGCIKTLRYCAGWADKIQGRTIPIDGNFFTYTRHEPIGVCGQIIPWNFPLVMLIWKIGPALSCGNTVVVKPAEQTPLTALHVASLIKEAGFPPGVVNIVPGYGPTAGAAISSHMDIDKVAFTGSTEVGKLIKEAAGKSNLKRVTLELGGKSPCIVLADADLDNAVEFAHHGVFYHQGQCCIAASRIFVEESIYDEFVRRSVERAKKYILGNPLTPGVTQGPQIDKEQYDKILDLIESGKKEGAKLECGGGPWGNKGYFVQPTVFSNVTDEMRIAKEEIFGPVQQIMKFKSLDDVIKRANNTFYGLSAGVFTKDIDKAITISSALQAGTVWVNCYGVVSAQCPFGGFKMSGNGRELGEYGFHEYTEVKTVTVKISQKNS
row,Compound,Potency
1,CCCOC(=O)c1c(NC(=O)C2CCCO2)sc(C(=O)OC)c1C (centres undefined),active: 2 µM
2,COc1cccc(NC(=O)CN(C)CC(=O)Nc2ccc3c(c2)CCC3)c1,inactive
3,CCc1ccccc1OCCCCCNCCO,inactive
4,COc1cc(C)ccc1OCCOCCOc1cc(C)c(C)cc1Br,inactive
5,Cc1ccc(N2C(=O)C3Sc4[nH]c(=O)sc4C(c4ccccc4)C3C2=O)cc1 (centres undefined),"inconclusive [inhibitor, single point]"
6,COc1ccc(OC)c(S(=O)(=O)N2CCC(C(=O)N3CCN(Cc4ccccc4)CC3)CC2)c1,"inconclusive [inhibitor, single point]"
7,CCOc1cccc(C(=O)Nc2nnc(-c3cccs3)s2)c1,"inconclusive [inhibitor, single point]"
8,C/C(=N/Nc1cc(-c2ccccc2)nc(-c2ccccc2)n1)c1ccc(O)cc1,"inconclusive [inhibitor, partial curve]"
9,CCOCCCNC(=O)c1cn(C)c2ccc(S(=O)(=O)N(C)C3CCCCC3)cc2c1=O,"inconclusive [inhibitor, single point]"
10,O=C(CSCc1c(Cl)cccc1Cl)NCC1CCCO1 (centres undefined),"inconclusive [inhibitor, single point]"
11,Cc1cc(C)c(-c2csc(Cc3nc(-c4cc5ccccc5oc4=O)cs3)n2)cc1C,"inconclusive [inhibitor, partial curve]"
12,CN(C)CCSc1nnc(-c2ccccc2)o1,inactive
13,COc1ccccc1OCC(=O)N/N=C1/SCC(=O)N1Cc1ccccc1,inactive
14,COc1ccc(CC(=O)NCC2COc3ccccc3O2)cc1 (centres undefined),"inconclusive [inhibitor, partial curve]"
15,Cc1ccccc1N(CC(=O)N/N=C/c1cc(C)n(-c2ccccc2C)c1C)S(C)(=O)=O,active: 3.98 µM
16,Oc1ccc2n[nH]nc2c1,"inconclusive [inhibitor, single point]"
17,OC[C@@H]1[C@@H](c2ccc(F)cc2)C(c2ccccc2)=NN1c1ccccc1,"inconclusive [inhibitor, partial curve]"
18,NCCC[C@@H](CC(=O)N[C@@H]1CCCC[C@H]1C(=O)N[C@H](CC(=O)N[C@@H](CCC(=O)O)CC(=O)O)Cc1ccccc1)NC(=O)C[C@H](Cc1c[nH]c2ccccc12)NC(=O)[C@@H]1CNCC[C@H]1N,inactive
19,CCOC(=O)Cc1cc(=O)n2[nH]c(-c3ccc(Cl)cc3)cc2n1,"inconclusive [inhibitor, single point]"
20,COC(=O)CN(c1ccc(F)cc1)S(=O)(=O)c1ccc2c(c1)OCCO2,"inconclusive [inhibitor, single point]"
21,COc1ccc(NS(=O)(=O)c2cccc(C(=O)N/N=C(\C)c3ccncc3)c2)cc1,"inconclusive [inhibitor, partial curve, poor fit]"
22,N=C1SCC(=O)N1c1ncc(Cc2ccccc2Cl)s1,inactive
23,CCNc1ncc2nc(-c3ccc(Cl)cc3)c(=O)n(-c3ccc(OC)cc3)c2n1,"inconclusive [inhibitor, partial curve]"
24,O=C(O)c1cccc(-n2cccc2/C=C2/NC(=O)N(Cc3ccccc3F)C2=O)c1,active: 14.1 µM
25,CCC(CC)NCc1ccc2c(c1)c1ccccc1n2CC,active: 20 µM

row,Compound,Potency
1,Clc1ccc(Cc2ccccc2)nn1,"inconclusive [inhibitor, single point]"
2,Cc1ccc(S(=O)(=O)NCC(C)NS(=O)(=O)c2ccc(C)cc2)cc1 (centres undefined),active: 0.398 µM
3,CC(C)CC(NC(=O)OC(C)(C)C)C(=O)NCc1ccccc1 (centres undefined),"inconclusive [inhibitor, partial curve]"
4,Cc1ccc(Cl)cc1NC(=S)N(CCCN1CCOCC1)Cc1ccco1,inactive
5,O=C(Nc1ccc2c(c1)CCC2)c1cccs1,inactive
6,CC(C)=NNc1nc2c(c(=O)[nH]c(=O)n2C)n1CCc1ccccc1,"inconclusive [inhibitor, single point]"
7,CCOC(=O)c1ccc2nc(C)c(CC)c(Cl)c2c1,"inconclusive [inhibitor, single point]"
8,COc1ccc(OC)c(-n2c(-c3ccc(C)cc3)n[nH]c2=S)c1,active: 17.8 µM
9,CCCCNC(=O)CSc1nc2cc(OC)c(OC)cc2c(=O)n1Cc1ccc(OC)cc1,inactive
10,COc1ccc(CN2C3CCCC2CC(NC(=O)Nc2ccccc2C)C3)cc1 (centres undefined),inactive
11,O=C(O)CC(Sc1n[nH]c(=S)s1)C(=O)O (centres undefined),active: 12.6 µM
12,CCN(CC(=O)Nc1ccc(C)c(F)c1)CC(=O)NC(C)(C)C,inactive
13,Cc1ccc2nc(NC(=O)c3ccc(OCC4CCCO4)cc3)sc2c1 (centres undefined),"inconclusive [inhibitor, single point]"
14,COc1cc(/C=C2/C(=O)NN(c3cccc(C)c3)C2=O)cc([N+](=O)[O-])c1O,"inconclusive [inhibitor, single point]"
15,O=C(c1csnn1)N1CCC2(CC1)CN(C(c1ccccc1)c1ccccc1)C2,inactive
16,C/C(=N/NC(=O)c1ccoc1C)c1ccc(NC(=O)c2ccncc2)cc1,inactive
17,CC1(C)CC(=O)C2=C(C1)N(c1ccc(Cl)cc1)C(=O)C2(O)C(F)(F)F (centres undefined),inactive
18,O=C(O)C(Cc1c[nH]c2ccccc12)NS(=O)(=O)c1ccc(Cl)cc1 (centres undefined),"inconclusive [inhibitor, single point]"
19,Cc1ccc(C(=O)O/N=C/c2c(C(F)(F)F)nn(C)c2Sc2ccc(Cl)cc2)cc1,inactive
20,O=C(NCCc1ccccc1)C(=S)N1CCCCC1,inactive
21,c1nc(NC2CC2)c2cc(-c3ccoc3)ccc2n1,"inconclusive [inhibitor, partial curve]"
22,CCCCCCCNC1=CC(=O)CC(c2ccco2)C1 (centres undefined),active: 25.1 µM
23,CNC(=S)Nc1ccc2nc(C)oc2c1,"inconclusive [inhibitor, single point]"
24,CNC(=O)c1ccc(Nc2nnc(-c3ccc(C)c(S(=O)(=O)NCC4CCCO4)c3)c3ccccc23)cc1 (centres undefined),"inconclusive [inhibitor, single point]"
